The list shows a part of the results. Single values are uncertain, as repeats are few or missing.
Experiments:
Experiment in all cases: cell count relative to DMSO control; melanoma cells; higher = more viable cells
Settings in all cases: library dose: standard library concentration; 72 h
G361 = tested on: G361
IPC-298 = tested on: IPC-298
IST-MEL1 = tested on: IST-MEL1
LB2518-MEL = tested on: LB2518-MEL
LOXIMVI = tested on: LOXIMVI
MEL-HO = tested on: MEL-HO
MZ2-MEL = tested on: MZ2-MEL
MeWo = tested on: MeWo
RPMI7951 = tested on: RPMI7951
RVH-421 = tested on: RVH-421
SkMel28 = tested on: SkMel28
SkMel2 = tested on: SkMel2
SkMel30 = tested on: SkMel30
SkMel5 = tested on: SkMel5
UACC257 = tested on: UACC257
UACC62 = tested on: UACC62
WM115 = tested on: WM115
WM1716 = tested on: WM1716
WM1745 = tested on: WM1745
WM3526 = tested on: WM3526
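Note: cells treated in 1,536-well plates, then fixed and DAPI-stained, with nuclei counted from automated high-throughput microscope images.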

| Structure (SMILES) | cell count (G361) | cell count (IPC-298) | cell count (IST-MEL1) | cell count (LB2518-MEL) | cell count (LOXIMVI) | cell count (MEL-HO) | cell count (MZ2-MEL) | cell count (MeWo) | cell count (RPMI7951) | cell count (RVH-421) | cell count (SkMel28) | cell count (SkMel2) | cell count (SkMel30) | cell count (SkMel5) | cell count (UACC257) | cell count (UACC62) | cell count (WM115) | cell count (WM1716) | cell count (WM1745) | cell count (WM3526) |
| --- | --- | --- | --- | --- | --- | --- | --- | --- | --- | --- | --- | --- | --- | --- | --- | --- | --- | --- | --- | --- |
| Cn1cnc2c(F)c(Nc3ccc(Br)cc3Cl)c(C(=O)NOCCO)cc21 [selumetinib] + CN(NC(=O)CC(=O)NN(C)C(=S)c1ccccc1)C(=S)c1ccccc1 [STA4783] (first compound 0.075 µM, partner dose 0.03 µM) | 34% | 54.6% | 27.5% | 14.7% | 73.9% | 87.7% | 67.9% | 19.3% | 122% | 40% | 26% | 27% | 57.3% | 66.6% | 83.3% | 24.5% | 23.5% | 74.3% | 51.1% | 60.7% |
| C[C@]1(O)C[C@@H](c2nc(-c3ccc4ccc(-c5ccccc5)nc4c3)c3c(N)nccn32)C1 + C[C@@H](Oc1cc(-c2cnn(C3CCNCC3)c2)cnc1N)c1c(Cl)ccc(F)c1Cl [Crizotinib] (first compound 2 µM, partner dose 1 µM) | 81.1% | 75.9% | 97.1% | 113% | 129% | 87.3% | 83.1% | 72% | 111% | 74.6% | 71% | 90.5% | 81.1% | 55.8% | 101% | 54.5% | 74.9% | 98% | 71.8% | 75.6% |
| COc1cc([C@@H]2c3cc4c(cc3[C@@H](O[C@@H]3O[C@@H]5CO[C@@H](C)O[C@H]5[C@H](O)[C@H]3O)[C@H]3COC(=O)[C@H]23)OCO4)cc(OC)c1O [etoposide] + COc1ccc(C2=N[C@@H](c3ccc(Cl)cc3)[C@@H](c3ccc(Cl)cc3)N2C(=O)N2CCNC(=O)C2)c(OC(C)C)c1 [Nutlin-3] (first compound 0.1 µM, partner dose 0.5 µM) | 83.5% | 76.2% | 113% | 73.7% | 46.2% | 90% | 65.3% | 100% | 106% | 53.5% | 62.4% | 65% | 107% | 73.4% | 78.9% | 57.4% | 91.9% | 51.9% | 80.2% | 97.8% |
| COc1cc([C@@H]2c3cc4c(cc3[C@@H](O[C@@H]3O[C@@H]5CO[C@@H](C)O[C@H]5[C@H](O)[C@H]3O)[C@H]3COC(=O)[C@H]23)OCO4)cc(OC)c1O [etoposide] + Cc1ccc(Nc2nccc(N(C)c3ccc4c(C)n(C)nc4c3)n2)cc1S(N)(=O)=O [Pazopanib] (first compound 0.1 µM, partner dose 2 µM) | 81.9% | 45.3% | 90.1% | 83.9% | 65.3% | 87.2% | 48.6% | 79.4% | 76.7% | 206% | 78.2% | 74.5% | 90.8% | 63.5% | 92.1% | 53.5% | 79.7% | 62.4% | 81.4% | 80.6% |
| Cn1cnc2c(F)c(Nc3ccc(Br)cc3Cl)c(C(=O)NOCCO)cc21 [selumetinib] + Clc1ccc(Nc2nnc(Cc3ccncc3)c3ccccc23)cc1 [vatalanib] (first compound 0.075 µM, partner dose 10 µM) | 58.2% | 43.2% | 66.7% | 56.3% | 89.4% | 57.7% | 66.1% | 78.7% | 98.8% | 80.1% | 63.9% | 76.7% | 74.7% | 59.7% | 93.4% | 60.5% | 67.2% | 79.9% | 73.8% | 73.1% |
| Cn1cnc2c(F)c(Nc3ccc(Br)cc3Cl)c(C(=O)NOCCO)cc21 [selumetinib] + O=C(CCCCCCC(=O)Nc1ccccc1)NO [vorinostat] (first compound 0.075 µM, partner dose 0.4 µM) | 72.3% | 58.8% | 73.5% | 39.4% | 97.2% | 81.6% | 78.6% | 62.4% | 71.7% | 77.8% | 39.1% | 23.2% | 72.3% | 53.4% | 77.6% | 61.2% | 60.1% | 78.9% | 67.8% | 50% |
| Cn1cnc2c(F)c(Nc3ccc(Br)cc3Cl)c(C(=O)NOCCO)cc21 [selumetinib] + Cc1ccc(NC(=O)c2cccc(N(C)C)c2)cc1NC(=O)c1ccc(O)cc1 [ZM336372] (first compound 0.075 µM, partner dose 10 µM) | 70.2% | 67.5% | 79.9% | 63.4% | 94.1% | 87.2% | 117% | 76.1% | 98.7% | 74.5% | 51% | 21.8% | 69.7% | 79.5% | 92.1% | 70.5% | 52.7% | 91.2% | 95.6% | 58.6% |
| Cn1cnc2c(F)c(Nc3ccc(Br)cc3Cl)c(C(=O)NOCCO)cc21 [selumetinib] + C[C@@H](Oc1cc(-c2cnn(C3CCNCC3)c2)cnc1N)c1c(Cl)ccc(F)c1Cl [Crizotinib] (first compound 0.075 µM, partner dose 1 µM) | 64.7% | 51% | 89.3% | 37.8% | 154% | 71.1% | 46.5% | 53.9% | 63.5% | 65.1% | 48.2% | 43.3% | 53.2% | 60.2% | 80.4% | 60.4% | 38.3% | 60.3% | 48.6% | 42.7% |
| COc1cc([C@@H]2c3cc4c(cc3[C@@H](O[C@@H]3O[C@@H]5CO[C@@H](C)O[C@H]5[C@H](O)[C@H]3O)[C@H]3COC(=O)[C@H]23)OCO4)cc(OC)c1O [etoposide] + CCCCCCCCc1ccc(CCC(N)(CO)CO)cc1 [fingolimod] (first compound 0.1 µM, partner dose 10 µM) | 0.214% | 25.2% | 8.26% | 0.644% | 7.84% | 7.12% | 1.43% | 31.7% | 1.4% | 4.52% | 1.16% | 0.4% | 8.49% | 53.5% | 68.7% | 13% | 8.75% | 44.6% | 14.1% | 37.1% |
| COc1cc([C@@H]2c3cc4c(cc3[C@@H](O[C@@H]3O[C@@H]5CO[C@@H](C)O[C@H]5[C@H](O)[C@H]3O)[C@H]3COC(=O)[C@H]23)OCO4)cc(OC)c1O [etoposide] + C#Cc1cccc(Nc2ncnc3cc(OCCOC)c(OCCOC)cc23)c1 [erlotinib] (first compound 0.1 µM, partner dose 4 µM) | 64.9% | 41.9% | 87.2% | 49% | 94.1% | 79.7% | 57.5% | 68.3% | 65.8% | 61.5% | 48.2% | 46.4% | 71.6% | 66.8% | 82.1% | 43.4% | 68.8% | 47.5% | 64.4% | 55.9% |
| CCN(CC)CCNC(=O)c1c(C)[nH]c(/C=C2\C(=O)Nc3ccc(F)cc32)c1C [sunitinib] + CC(=O)O[C@@]12CO[C@@H]1C[C@H](O)[C@@]1(C)C(=O)[C@H](O)C3=C(C)[C@@H](OC(=O)[C@H](O)[C@@H](NC(=O)OC(C)(C)C)c4ccccc4)C[C@@](O)([C@@H](OC(=O)c4ccccc4)[C@H]21)C3(C)C [Docetaxel] (first compound 2 µM, partner dose 0.0005 µM) | 13.9% | 37.3% | 45.5% | 32.4% | 110% | 34.2% | 29.4% | 33.7% | 31.1% | 71.7% | 21.9% | 13% | 36.6% | 29.4% | 59.2% | 37.1% | 39.7% | 45.6% | 40.6% | 33.5% |
| C[C@]1(O)C[C@@H](c2nc(-c3ccc4ccc(-c5ccccc5)nc4c3)c3c(N)nccn32)C1 + CCCS(=O)(=O)Nc1ccc(F)c(C(=O)c2c[nH]c3ncc(Cl)cc23)c1F [PLX4720] (first compound 2 µM, partner dose 0.4 µM) | 46.3% | 70.1% | 4.48% | 84.5% | 63.4% | 70.7% | 64.1% | 83.3% | 102% | 75.4% | 30.3% | 82% | 95.5% | 71.8% | 108% | 55.9% | 80.5% | 90.4% | 51.7% | 42.3% |
| COc1cc([C@@H]2c3cc4c(cc3[C@@H](O[C@@H]3O[C@@H]5CO[C@@H](C)O[C@H]5[C@H](O)[C@H]3O)[C@H]3COC(=O)[C@H]23)OCO4)cc(OC)c1O [etoposide] + O=C(O)c1ccc2c(c1)nc(Nc1cccc(Cl)c1)c1ccncc12 [CX4945] (first compound 0.1 µM, partner dose 2 µM) | 69.8% | 58.5% | 99% | 105% | 58.2% | 68.7% | 56.8% | 84.2% | 118% | 96.6% | 81.7% | 69.1% | 71.6% | 88.6% | 97.5% | 64.7% | 87.8% | 72% | 86.7% | 78.2% |
| COc1cc([C@@H]2c3cc4c(cc3[C@@H](O[C@@H]3O[C@@H]5CO[C@@H](C)O[C@H]5[C@H](O)[C@H]3O)[C@H]3COC(=O)[C@H]23)OCO4)cc(OC)c1O [etoposide] + OCCn1cc(-c2cnc3nnn(Cc4ccc5ncccc5c4)c3n2)cn1 [PF04217903] (first compound 0.1 µM, partner dose 5 µM) | 94.3% | 88.7% | 248% | 85.1% | 79.7% | 109% | 95.8% | 88.5% | 89.7% | 66% | 89.7% | 74.6% | 107% | 84.8% | 89.3% | 80.4% | 69.6% | 58.6% | 87% | 99.6% |
| CCN(CC)CCNC(=O)c1c(C)[nH]c(/C=C2\C(=O)Nc3ccc(F)cc32)c1C [sunitinib] + C[C@@H](Oc1cc(-c2cnn(C3CCNCC3)c2)cnc1N)c1c(Cl)ccc(F)c1Cl [Crizotinib] (first compound 2 µM, partner dose 1 µM) | 80.4% | 76.1% | 91.7% | 59.4% | 149% | 92.9% | 85.6% | 44.1% | 59.1% | 82.9% | 46.6% | 58.9% | 43.8% | 42.1% | 81.5% | 46.6% | 40.7% | 65.9% | 38.3% | 45.6% |

From the supplement of paper PMC4604168 (melanoma cell lines)
